In the supplement of paper PMC10441789:
Some of the results follow. Antibody binding of pooled human sera (four to six donors per pool; dilution not stated) to peptides of the Trypanosoma cruzi antigen TSSA on microarrays. Quantile-normalised fluorescence in arbitrary units, mean of duplicate arrays; higher = more binding. No active / inactive call. The uninfected pools are read here as the healthy donors of the same country. The strongest signals lie near the top of the scale (about 60,000).

System: pooled sera of uninfected people, Colombia
Experiment: antibody binding signal (normalised fluorescence) (arbitrary fluorescence units); higher = stronger serum antibody binding to peptide
Protocol: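 Microarray of 15-residue peptides over residues 30-55 of Trypanosoma cruzi TSSAII, each with 1 to 10 substitutions at naturally variable positions, probed with one serum pool per country.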

Sequence | antibody binding signal
ENKAATGGAPSPSGA | 191
SGKDKKAATGEAPSP | 279
KEKKPAAGETPSPSG | 62.5
EKKAATGEAPSPSGA | 512
GTDNKPATGETPSQP | 129
PSGTEKKPAAGEAPS | 394
SGTENKPAAGEAPSP | 145
STPPSGTDNKAAAGG | 175
KDKKAAAGEAPSQPG | 98.4
GKDNKAAAGEAPSQP | 186
DNKAATGGAPSPPGA | 190
PSGTENKAATGEAPS | 363
TPPSGTDNKTATGGT | 316
GTENKTATGGTPSPP | 672
NKPATGGTPSQPGAS | 580
DNKTATGEAPSQPGA | 159
PPSGKEKKAAAGETP | 315
GKEKKTATGGAPSQS | 77.8
DKKPATGGTPSQPGA | 256
PPSGTEKKPAAGETP | 848

Sequence | antibody binding signal
GTDKKAAAGEAPSPS | 101
ISTPPSGKENKAAAG | 810
ENKPATGGTPSQPGA | 391
TDNKTATGETPSPSG | 144
TPPSGTENKPAAGGT | 690
GTDNKAATGETPSPP | 107
ISTPPSGKDKKAAAG | 144
TPPSGTENKAAAGEA | 403
SGTDNKTAAGGTPSP | 360
SGTDNKPATGEAPSQ | 211
TEKKPATGGTPSQPG | 303
EKKTAAGGTPSPPGA | 301
SGTDNKTAAGGTPSQ | 225
KDKKPAAGGAPSQSG | 86.3
GKDKKTAAGGTPSQP | 181
TENKTATGETPSPPG | 129
DKKPAAGEAPSQPGA | 150
STPPSGTDNKPAAGG | 333
KENKAAAGGTPSPSG | 164
GKENKAAAGGAPSQS | 111
